# Test results published in the supplement of paper PMC3334620.
# In all, about 33,000 sequences were measured (“E-score (-0.5 to 0.5)”: median about -0.011, highest 2% from about 0.28 on). Some of the results follow.
# Biological target: T1, Gcr1 (UniProt P07261)
# T1 sequence: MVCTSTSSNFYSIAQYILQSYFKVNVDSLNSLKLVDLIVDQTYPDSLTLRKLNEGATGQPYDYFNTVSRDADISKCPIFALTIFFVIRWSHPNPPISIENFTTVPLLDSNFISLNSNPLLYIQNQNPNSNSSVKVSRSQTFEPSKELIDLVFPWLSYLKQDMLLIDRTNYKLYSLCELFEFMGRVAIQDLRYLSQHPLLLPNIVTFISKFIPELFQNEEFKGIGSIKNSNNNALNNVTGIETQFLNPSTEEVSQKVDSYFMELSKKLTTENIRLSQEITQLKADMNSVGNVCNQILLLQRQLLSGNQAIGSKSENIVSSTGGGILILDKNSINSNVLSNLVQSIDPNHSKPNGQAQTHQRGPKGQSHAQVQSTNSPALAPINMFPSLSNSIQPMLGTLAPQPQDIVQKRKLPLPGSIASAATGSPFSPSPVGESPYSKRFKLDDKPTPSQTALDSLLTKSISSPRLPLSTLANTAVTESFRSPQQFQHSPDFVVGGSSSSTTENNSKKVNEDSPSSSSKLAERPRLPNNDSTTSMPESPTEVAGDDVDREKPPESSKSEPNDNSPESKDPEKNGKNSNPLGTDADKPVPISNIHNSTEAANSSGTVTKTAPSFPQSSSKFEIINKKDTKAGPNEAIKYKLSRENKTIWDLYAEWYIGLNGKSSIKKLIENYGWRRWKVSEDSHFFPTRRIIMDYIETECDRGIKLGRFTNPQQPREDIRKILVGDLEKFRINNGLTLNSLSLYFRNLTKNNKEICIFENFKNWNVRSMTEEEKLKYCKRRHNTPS
# Assay: PBM E-score (8-mer binding enrichment) (E-score (-0.5 to 0.5)); higher = stronger / more preferred TF binding; most listed sequences are background and not binding sites
# Settings: protein concentration: 100 nM; construct: GST-full length
# Summary of the method: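 Using PURExpress in vitro transcription/translation, GST-tagged yeast transcription factors were made in full-length or DNA-binding-domain form. These were applied at about 100-200 nM to double-stranded universal all-10-mer Agilent arrays, and bound protein was detected with fluorescent anti-GST. Scans were normalised with masliner before the Universal PBM Analysis Suite assigned E-scores to ungapped eight-base words pooled with their reverse complements.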
row,Sequence,PBM E-score
1,AATGTAGT,0.0188
2,TCTACAAA,-0.0185
3,GGCCCACC,-0.14
4,AGACCCCT,-0.0881
5,ATCAATGA,-0.0538
6,ATTAAACC,0.0299
7,ATTCTTGG,0.279
8,GGACTTGA,-0.227
9,CGGACGAA,0.19
10,ACGGGCCC,-0.0243
11,GCGCTCCA,-0.0273
12,CCTACTCC,-0.0757
13,GACCCGCA,-0.0961
14,GAGGGGAA,0.166
15,ACGTACTA,-0.118
16,CGATTCTC,-0.139
17,ATCGTCGC,-0.0626
18,CAGCGCGG,-0.145
19,GACAATAA,0.0148
20,CTAGTAAC,0.102
21,CGACACTC,-0.251
22,ATCCTCCG,-0.00232
23,CTTGTGTA,-0.103
24,CCGAAAGA,0.171
25,CGCATCGC,-0.0699

row,Sequence,PBM E-score
1,CCCTTCTC,-0.098
2,GAATCTCC,0.0335
3,ACCTCCTC,-0.194
4,CCGTTCAC,-0.0674
5,GAAGGTCA,-0.142
6,CCTACGAA,0.192
7,ATTGATGG,0.108
8,CGACGGAG,-0.146
9,CACCGGTG,-0.0693
10,GAATTGAC,0.117
11,CCAGGGCG,-0.131
12,ATGCCTTG,-0.254
13,CTCCACGA,-0.0434
14,ACATCTGG,0.105
15,GAAGGAGC,-0.00629
16,CGTGGGAC,0.0757
17,CTGGCTCA,0.0519
18,TCGAACAA,-0.00115
19,AATATAGG,0.224
20,GCTATTCC,0.00694
21,CGTCCTTA,-0.0366
22,GCGGGTCC,-0.0392
23,GCCCCACA,0.202
24,AAAGAGCG,0.0471
25,AACAAGCC,-0.0917

row,Sequence,PBM E-score
1,TGAACCAA,0.022
2,AAATCAAA,0.0655
3,ATCGCTAC,-0.0298
4,ACGGTATG,-0.226
5,AGTTACCG,-0.0176
6,AGTTTGTC,-0.218
7,CGCGCTCC,0.0902
8,AACTCCGG,0.179
9,GAGTGCTA,-0.0197
10,ATCTATAG,0.063
11,ACATCAAG,0.0653
12,CTGATCCA,-0.0593
13,GTAGACAA,-0.0655
14,GCGTATAA,0.353
15,CATATTCG,0.0926
16,GGGCGCAA,0.126
17,GGATTATA,0.0218
18,AACGTCAC,-0.0523
19,CACCGAAG,0.0421
20,ATGATCCC,0.143
21,GATAAATA,0.126
22,TGGTTGAA,0.0618
23,GGCTAAAC,0.174
24,AGTTCGAG,0.0999
25,AAATTCAC,-0.0273

row,Sequence,PBM E-score
1,CAGACCTA,-0.1
2,AACTCCGC,-0.289
3,CAACGACA,-0.0677
4,CCTTAGTA,-0.0122
5,ATTCAAAG,0.0467
6,ACGGGGAG,-0.00023
7,CGTAACAG,-0.0691
8,CGCGGGTC,-0.00854
9,ATCATGCG,-0.152
10,CGCAAGGC,-0.127
11,ATCCTACA,0.0169
12,CGGAGCAC,-0.0268
13,AAACCCTA,-0.0731
14,CAGACCCC,-0.047
15,ACCTCTGG,0.0722
16,ACATGAGC,-0.137
17,GAACGATA,0.00905
18,GACGAATC,0.083
19,AGTAACAG,0.0784
20,AAGCCCGG,0.042
21,AGATACCC,-0.125
22,CGCTCATA,-0.237
23,CAACCAAG,0.0892
24,CGGGGGCA,-0.15
25,CTCGAAAA,0.0122

row,Sequence,PBM E-score
1,CAAAAACG,0.0293
2,CTCCAACC,-0.0467
3,ATGCCCAC,0.0675
4,CGGTTCTA,0.137
5,GCGTCGCC,-0.00704
6,CAATTGCC,-0.042
7,CACCGCCA,-0.0548
8,GGATCACA,-0.152
9,ACAAATCA,-0.0754
10,AGAGATGG,-0.277
11,GTGATAAC,-0.0427
12,TAGAGAGA,-0.125
13,CCCCAGGG,-0.0617
14,AACCATCG,-0.148
15,AGCTCAGC,-0.0962
16,AAGCGGGG,0.0275
17,CGTTTAAG,0.0767
18,ACGCAGGG,0.0336
19,CGCACTGC,-0.0795
20,GAAAAACC,-0.0156
21,AAATTTAC,0.147
22,CTCGGTGC,0.00227
23,AGTCTTAG,0.114
24,CAGTTAGG,-0.0288
25,GGCACTTA,0.0609

row,Sequence,PBM E-score
1,AAATAGGG,0.18
2,TACGCCGA,-0.0187
3,GGTACCGA,-0.0279
4,CACAGCTG,-0.0818
5,ATTGTACC,-0.0167
6,CTCACGGC,-0.167
7,GTTATACA,-0.099
8,CCGGCCCC,0.0519
9,ACCAGGGT,-0.0566
10,CAGAATGG,-0.225
11,GGGTAAAC,-0.0667
12,GAACAGTA,-0.154
13,ACCTTGAG,-0.184
14,TCAATGCA,-0.157
15,CTGATGTA,0.0712
16,AGCGAATA,-0.0785
17,AAATGTGT,0.0196
18,AGACGTCT,-0.18
19,GTGAATCA,0.0197
20,AACTGTAC,-0.166
21,CTAGTTGC,0.263
22,GCGCACAA,0.0647
23,AAGAATAT,-0.0605
24,ACTCCTCG,0.068
25,ACAGTGCG,-0.135

row,Sequence,PBM E-score
1,GAGCGATA,-0.152
2,GCGGAAAC,-0.0701
3,ATACCATC,0.00422
4,CCTTGTTA,-0.0693
5,ATCTGATG,-0.00558
6,ATAATCGG,0.088
7,CGTCCCCC,-0.133
8,ACGGTGTA,-0.213
9,AGTCGTTA,-0.202
10,TCCGTACA,-0.109
11,ACAAAAAC,0.0232
12,GAACATAC,-0.0679
13,GGCAACAC,0.143
14,AGGCAGTA,-0.0662
15,TAACGAAA,0.0964
16,GTATCTAA,0.16
17,GAATGGCA,-0.0438
18,CAGGAGGA,0.0154
19,CGCAGATA,0.168
20,ATCTCGAC,-0.031
21,ACGAGCGA,-0.0353
22,GACTACAA,-0.138
